Experimental data published in US20240390496A1 (UNIVERSITY OF SOUTHERN CALIFORNIA, published 2024).

Experiments:
Test in all cases: cell-based or functional assay
CD22 on RAJI cells = CD22 on RAJI cells (UniProt P20273 20-847, limits assumed)
[1] = target: T1, CD19 on RAJI, Nalm6 or RS4;11 cells (human, UniProt P15391 20-556)
T1 sequence (looked up): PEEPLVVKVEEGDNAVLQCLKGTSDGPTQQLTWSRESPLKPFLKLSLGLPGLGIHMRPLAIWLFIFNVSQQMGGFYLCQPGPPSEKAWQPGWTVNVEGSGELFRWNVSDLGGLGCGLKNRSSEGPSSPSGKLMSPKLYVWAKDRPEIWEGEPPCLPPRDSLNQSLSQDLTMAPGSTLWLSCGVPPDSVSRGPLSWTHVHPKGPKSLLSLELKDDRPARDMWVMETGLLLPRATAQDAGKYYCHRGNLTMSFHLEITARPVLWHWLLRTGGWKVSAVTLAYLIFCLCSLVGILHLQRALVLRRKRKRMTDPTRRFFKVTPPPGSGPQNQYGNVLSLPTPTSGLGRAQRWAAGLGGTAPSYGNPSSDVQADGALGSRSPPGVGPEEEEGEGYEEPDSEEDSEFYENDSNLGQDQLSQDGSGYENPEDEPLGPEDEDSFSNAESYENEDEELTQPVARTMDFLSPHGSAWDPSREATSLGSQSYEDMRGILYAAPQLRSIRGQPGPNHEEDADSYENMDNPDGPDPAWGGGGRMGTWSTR

CD20 on RAJI cells = target: T2, CD20 on RAJI cells (UniProt P11836 1-297, limits assumed)
T2 sequence (looked up): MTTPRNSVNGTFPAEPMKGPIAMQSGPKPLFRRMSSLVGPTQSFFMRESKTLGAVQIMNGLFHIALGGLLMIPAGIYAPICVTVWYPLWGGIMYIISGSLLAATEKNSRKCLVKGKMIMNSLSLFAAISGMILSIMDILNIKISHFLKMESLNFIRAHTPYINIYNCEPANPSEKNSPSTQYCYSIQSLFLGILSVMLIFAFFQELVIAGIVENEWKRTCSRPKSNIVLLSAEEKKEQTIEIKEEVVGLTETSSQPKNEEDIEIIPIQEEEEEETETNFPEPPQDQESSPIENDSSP

B1: CD8SP-CD22-h10F4v2-scFv-CD16A-F158V-S197P-FL-v3 (receptor)
chain: DIQMTQSPSSLSASVGDRVTITCRSSQSIVHSVGNTFLEWYQQKPGKAPKLLIYKVSNRFSGVPSRFSGSGSGTDFTLTISSLQPEDFATYYCFQGSQFPYTFGQGTKVEIKRGGGGSGGGGSGGGGSEVQLVESGGGLVQPGGSLRLSCAASGYEFSRSWMNWVRQAPGKGLEWVGRIYPGDGDTNYSGKFKGRFTISADTSKNTAYLQMNSLRAEDTAVYYCARDGSSWDWYFDVWGQGTLVTVSSTR[about 200 residues skipped]VSFCLVMVLLFAVDTGLYFSVKTNIRSSTRDWKDHKFKWRKDPQDK
- NFAT-GFP assay: JNG cells with the CD16-SAR, no drug selection, co-cultured ~24 h with RAJI (CD22 on RAJI cells): 0.1 + score

B2: CD8SP-CD19Bu12-scFv-CD16A-F158V-S197P-FL-v3 (receptor)
chain: DEIVLTQSPATLSLSPGERATLSCSASSSVSYMHWYQQKPGQAPRLLIYDTSKLASGIPARFSGSGSGTDFTLTISSLEPEDVAVYYCFQGSVYPFTFGQGTKLEIKRGGGGSGGGGSGGGGSQVQLQESGPGLVKPSQTLSLTCTVSGGSISTSGMGVGWIRQHPGKGLEWIGHIWWDDDKRYNPALKSRVTISVDTSKNQFSLKLSSVTAADTAVYYCARMELWSYYFDYWGQGTLVTVSSTR[about 200 residues skipped]VSFCLVMVLLFAVDTGLYFSVKTNIRSSTRDWKDHKFKWRKDPQDK
- NFAT-GFP assay: JNG cells with the CD16-SAR, no drug selection, co-cultured ~24 h with RAJI [1]: 0.3 + score

B3: CD8SP-CD20-VHH-USC1-CD16A-F158V-S197P-FL-v3 (receptor)
chain: EVQLVESGGGLVQAGGSLRLSCAASGRTFSMGWFRQAPGKEREFVAAITYSGGSPYYADSVKGRFTISRDNAKNTVYLQMNSLKPEDTAVYYCAANPTYGSDWNAENWGQGTQVTVSSTR[about 200 residues skipped]VSFCLVMVLLFAVDTGLYFSVKTNIRSSTRDWKDHKFKWRKDPQDK
- NFAT-GFP assay: JNG cells with the CD16-SAR, no drug selection, co-cultured ~24 h with RAJI (CD20 on RAJI cells): 2.6 + score
